# Experimental data from PubChem BioAssay AID686979 (National Center for Advancing Translational Sciences (NCATS), 2013).
# The whole screen tested about 420,000 compounds, of which about 50,000 (12%) were called active. About 26% were inconclusive and are not listed. Calls come from the whole dose curve; as a rule, active = well fitted inhibition curve with a large enough effect; inconclusive = small, poorly fitted or top-dose-only effect; inactive = flat fitted curve, though single readings scatter. Only a part is listed here, and it is no random draw. The source holds several records for some structures; these can differ, active in one and inactive in another.
# Test: qHTS for Inhibitors of human tyrosyl-DNA phosphodiesterase 1 (TDP1): qHTS in cells in presence of CPT; note: nearly all actives have a fitted effect of over 55% in size
# Details: chicken DT40 Tdp1-/-;hTDP1 cells + 20 nM CPT, ATP luminescence, 48 h; series mostly up to 46.2 µM; activity change, negative = growth inhibition: at the top concentration
# Summary of the method: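 Chicken DT40 Tdp1-/- cells stably complemented with human TDP1 were seeded at 400 cells/well in medium containing 20 nM camptothecin, exposed to pin-transferred compounds, and grown at 37 °C for at least 48 hr. Viability was read as ATP luminescence.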
# % is set by controls: 0 for no effect and ±100 for the full control effect; potency is the fitted concentration of half-maximal effect.
Compound,"activity change, negative = growth inhibition",Potency
CC(OC(=O)c1cc2c(s1)CCCCC2)C(=O)NC(N)=O (stereo not given),inactive: 22.4%,
C[C@H](CO)N1C[C@H](C)[C@@H](CN(C)S(=O)(=O)c2ccc3ccccc3c2)OCc2cn(nn2)CCCC1=O,inactive: -2.94%,
Clc1ccc2c(c1)C(N1CCNCC1)=Nc1ccccc1O2,inactive: 1.63%,
N#CC[C@H](Cc1ccccc1)N1CC[C@@H](NC(=O)OCc2ccccc2)CCC1=O,inactive: -29.6%,
O=C(C[C@@H]1C/C=C/CC[C@H](Cc2ccc(F)cc2)C(=O)O[C@H](c2ccccc2)CNC1=O)NCCO,inactive: -0.642%,
CC1(C)C=Cc2c(c3c(c4c(=O)c(-c5ccc(O)cc5)coc24)OC(C)(C)CC3)O1,,active: 18.4 µM
COc1cc(NC(=O)NCC2CCN(Cc3ccccc3Cl)CC2)cc(OC)c1OC,inactive: 8.7%,
CCOC(=O)c1c(C)[nH]c(C)c1S(=O)(=O)NCCc1sccc1C,inactive: 0.693%,
CCOC(=O)c1cnc2c(Cl)c(Cl)ccc2c1NCCN1CCOCC1,inactive: -8.53%,
CCOC(=O)CSC1=N/C(=C\c2cc(OC)c(OC)c(OC)c2)C(=O)N1C,inactive: 35.4%,
CC(=O)Nc1ccc(-c2cc3ccccc3o2)cc1,inactive: 34.8%,
Cc1cccc(C)c1NC(=O)C1C(c2ccc3c(c2)OCO3)=Nc2ccccc2N1C(=O)c1cccc2ccccc12 (stereo not given),,active: 6.51 µM
Cc1ccc(N(CC2=NCCN2)c2cccc(O)c2)cc1,,inactive
Cc1cc(C)c(NC(=O)CSc2nc3c(c(=O)n2C)SC(C)C3)c(C)c1 (stereo not given),,active: 20.6 µM
CC1CCN(c2nc3c(=O)[nH]c(N)nc3n2[C@@H]2O[C@H](CO)[C@@H](O)[C@H]2O)CC1,inactive: -1.31%,
CC1(OC(=O)CCc2ccccc2)C(=O)C=C2C=C(c3ccc(C#N)cc3)N(CC3CC3)C=C2C1=O (stereo not given),,active: 14.6 µM
C[C@@H](O)CNC(=O)c1[nH]cnc1C(=O)Nc1cccc(Cl)c1,inactive: -4.02%,
COC(=O)[C@H](c1ccccc1Cl)N1CCc2sccc2C1,inactive: -0.907%,
C[C@]12CCC(=O)C=C1CC[C@@H]1[C@@H]2C(=O)C[C@@]2(C)[C@H]1CC[C@]2(O)C(=O)CO,,inactive
CCOc1ccccc1N1CC(O)=C(c2nc3ccccc3s2)C1=N,,active: 3.26 µM
O=C1CN(C(=O)Nc2ccccc2Cl)C(c2ccccc2)c2c(sc3c2CCCC3)N1 (stereo not given),,active: 23.1 µM
COC(=O)c1ccc(Cn2nc(-c3ccc(C)cc3)ccc2=O)cc1,inactive: -2.05%,
CC(C)c1ccc(NC(=O)CCS(=O)(=O)c2cccc3nonc23)cc1,inactive: 6.34%,

Compound,"activity change, negative = growth inhibition",Potency
CCOc1[nH]n(-c2ccc(Cl)cc2)c(=O)c1C=NCC(=O)OC,inactive: -9.62%,
Cc1ccc(C)c(N2CCN(C(=O)CC3Sc4ccccc4NC3=O)CC2)c1 (stereo not given),,active: 18.4 µM
COc1ccc(N(CCC#N)C(=O)/C(C#N)=C\c2cccs2)cc1,inactive: -12.3%,
O=c1cc(-c2ccccc2)[nH]n2cnnc12,inactive: 35.8%,
COCc1cc(=O)[nH]c(N2CCN(c3ccccc3OC)CC2)n1,inactive: 52.7%,
COc1ccc(N2C(=O)C(Cc3ccccc3)NC2=S)cc1 (stereo not given),inactive: 31.4%,
C[C@H]1NC(=O)[C@]2(C)[C@@H](c3ccccc3)[C@H]3COc4ccccc4[C@@H]3N2C1=O,inactive: -0.0375%,
COc1cc(OC)cc(-c2cc3ccc(OC)cc3cn2)c1,,active: 16.4 µM
C[C@H]1CN([C@@H](C)CO)C(=O)CCCn2cc(nn2)CO[C@@H]1CN(C)S(=O)(=O)c1ccc2ccccc2c1,inactive: -22.9%,
Cn1c(CN2CCCCC2)nc2cc(NC(=O)c3ccc(Cl)cc3)ccc21,inactive: -28.6%,
O=C(Nc1cccc(Cl)c1)/C(=C\c1cccnc1)NC(=O)c1ccco1,inactive: 36.7%,
Cc1noc(C)c1NC(=O)N(C)C[C@H]1Oc2ccc(NC(=O)NC(C)C)cc2C(=O)N([C@H](C)CO)C[C@H]1C,inactive: 25.9%,
Cc1ccc(C)c(-n2c(-c3cccnc3)n[nH]c2=S)c1,inactive: 31.6%,
C[C@@H]1CN([C@H](C)CO)C(=O)CCCn2nncc2CO[C@H]1CN(C)Cc1cccc(C(F)(F)F)c1,,active: 20.6 µM
COc1ccc([C@@H]2CNC(=O)C2)cc1OC1CCCC1,,inactive
O=C(O)c1cn(C2CC2)c2cc(N3CCN(S(=O)(=O)c4ccc5c(c4)OCCO5)CC3)c(F)cc2c1=O,,active: 14.6 µM
Cc1cc(OC(=O)c2c(C)cc(O)cc2O)cc(O)c1C(=O)O,,inactive
CCOC(=O)CSc1nc2cccnc2n1C,inactive: 32.2%,
CC1(C)C2CC[C@@]1(C)C(=O)C2,inactive: 0.488%,
CCCCN(CC)CCNC(=O)c1cc2c(=O)[nH]c3ccccc3c2n1C,inactive: -4.95%,
COc1cc(C(=O)NCC(c2cccnc2)N2CCN(c3ccc(F)cc3)CC2)cc(OC)c1OC (stereo not given),inactive: -25.6%,
Cc1nc(NCc2ccco2)c2c(C)c(C)sc2n1,,active: 2.06 µM
